Results on 62 molecules are retold here after PubChem BioAssay AID1508642 (National Center for Advancing Translational Sciences (NCATS), 2021).

Structures are written as SMILES. The whole screen tested about 43,000 compounds, of which about 200 (0.47%) were called active. Inconclusive results (about 12%) are left out. The call rests on the fitted dose curve; in most records, active means well fitted cell-killing curve with a large enough effect; inconclusive means small, poorly fitted or top-dose-only effect, or effect the other way; inactive means flat fitted curve, though single readings scatter. The list shows a part of the results.
On the % scale 0 is the no-effect control and ±100 the full control effect.

This assay in a line: Cell viability qHTS assay in S16 Pmp22-F2sN cells. Further: nearly all actives have a fitted effect of over 65% in size. The settings on record: S16 Pmp22-F2sN Schwann cells (luciferase reporters placed in the Pmp22 gene) viability, CellTiter-Glo, 24 h; series mostly up to 57.5 µM; activity change, negative = cytotoxicity: at the top concentration. The gist of the method: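 Seed 500-1,000 S16 Pmp22-F2sN cells per well in phenol-red-free DMEM with 10% heat-inactivated FBS; pin-add 23 nL compound; incubate 24 h at 37C; add CellTiter-Glo, wait 15 min protected from light; read luminescence.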
A general note: In qHTS, concentration-response curves come from the screen itself.
With `O=C(NCc1ccccc1Cl)C(=O)NCC(c1ccc2c(c1)OCO2)N1CCOCC1` (configuration not stated), the “activity change, negative = cytotoxicity” value was inactive: -2.5%.

Take `Cc1nc(-c2ccccc2)sc1-c1ccc(SCC(=O)Nc2ccccc2)nn1`: the “activity change, negative = cytotoxicity” value was inactive: 14%. Under `Cc1ccc(NC(=O)c2ccc(F)c(S(=O)(=O)NCCc3ccccc3)c2)cc1F` stands inactive: -26.9%. Under `Cc1oc(-c2cccc(Br)c2)nc1CN1CCC(C(=O)NCc2ccccc2)CC1` stands inactive: 5.21%; under `O=C(NCc1ccccc1Cl)c1cc(-c2ccccc2)n[nH]1`, inactive: -12.7%. The value for `COCCn1c(CCC(=O)Nc2ccc(OC)c(OC)c2)nc2cccnc21` was inactive: 11.4%; that for `O=C(Cn1c2ncccc2c(=O)n1-c1ccccc1)NCc1ccccc1` was inactive: 4.05%; that for `Cc1cc(C)cc(NC(=O)CSc2nccn2C2CCCC2)c1` was inactive: 4.95%. Regarding `CCc1ccc(NC(=O)N2CCN(c3nnc(C)c4c(C)n(-c5ccc(Cl)cc5)nc34)CC2)cc1`, the “activity change, negative = cytotoxicity” value was inactive: -26.4%.

With `COc1cccc(NC(=O)c2csc3c2CCCCC3)c1`, the “activity change, negative = cytotoxicity” value was inactive: -1.27%. The value for `COc1cccc(C2C(C(N)=O)=C(C)Nc3nc(CCCO)nn32)c1` (configuration not stated) was inactive: 13.1%; that for `COc1cccc(CNC(=O)Cc2c(C)c3cc4c(C)coc4cc3oc2=O)c1` was inactive: 7.1%. Under `COc1ccc(CCNc2ncnc3c2cnn3-c2ccc(F)cc2)cc1` stands inactive: -8.19%; under `Cc1ccc(Cl)cc1NC(=O)Cn1nnc2sc3c(c2c1=O)CCC(C(C)(C)C)C3` (configuration not stated), inactive: 8.97%. The value for `Cc1cccc(N(C)S(=O)(=O)c2nnc(NC(=O)C(C)(C)C)s2)c1` was inactive: -1.98%; that for `COc1ccc(OC)c(CNC(=O)c2cc3c(=O)oc4ccc(C)cc4c3s2)c1` was inactive: 0.233%. `COc1ccc(N(Cc2cc3cc(OC)ccc3[nH]c2=O)C(=O)c2cccc(Cl)c2)cc1`: the “activity change, negative = cytotoxicity” value was inactive: 2.69%. Under `Brc1ccc(CN2CCc3nc(Nc4ccccc4)ncc3C2)s1` stands inactive: -13.8%; under `COc1cccc(CNC(=O)Nc2cn(CC(C)C)c(=O)c3ccccc23)c1`, inactive: 5.81%.

`COc1ccc(-c2oc3ncn4nc(-c5ccccc5OC)nc4c3c2-c2ccc(OC)cc2)cc1`: the “activity change, negative = cytotoxicity” value is inactive: -2.01%. Under `OCCN1CCN(c2ncnc3c2cnn3-c2cccc(Cl)c2)CC1` stands inactive: 2.58%.

Take `COc1cc(OC)cc(-n2c(=O)c3sccc3n(Cc3cc(=O)n4c(C)cccc4n3)c2=O)c1`: the “activity change, negative = cytotoxicity” value was inactive: -29.8%. The value for `CCOc1ccc(-n2c(-c3ccc(Br)cc3)cc3c2CC(C)(C)CC3=O)cc1` was inactive: 17.3%; that for `CCOC(=O)c1cc(-c2ccc(F)cc2)n(CCC(=O)Nc2nc3cc(C)c(C)cc3s2)c1C` was inactive: 11%. With `Cc1nnc2c3ccccc3nc(Nc3ccc(F)cc3Cl)n12`, the “activity change, negative = cytotoxicity” value is inactive: -5.14%. The value for `Cc1nc(N2CCCC2)ncc1C(=O)Nc1ccc(OC(F)(F)F)cc1` was inactive: -2.97%; that for `Cc1ccc(NC(=O)Cn2c(=O)ccc3cc(S(=O)(=O)N4CCCC4)ccc32)cc1C` was inactive: 4.24%; that for `Cc1c(C(=O)N2CCC(C(=O)Nc3ccc(F)c(Cl)c3)CC2)sc2nc[nH]c(=O)c12` was inactive: -10.2%. Under `CC(C)c1ccc(-c2noc(SCC(=O)N3CCN(c4ccccc4F)CC3)n2)cc1` stands inactive: 17.8%. Under `O=C(NCc1cccs1)c1ccc2c(c1)sc1nc(-c3ccccc3)cn12` stands inactive: 6.49%; under `COc1ccc(Cn2ccn(CC(=O)Nc3cc(C)ccc3C)c(=O)c2=O)cc1`, inactive: 0.945%. For `COc1ccc(-c2cn3cccnc3n2)cc1NC(=O)c1ccccc1C(F)(F)F`, the “activity change, negative = cytotoxicity” value is inactive: 3.41%. Under `COc1ccc2c(c1)c(=O)c(C(=O)c1ccc(F)cc1)cn2CC(=O)Nc1ccc2c(c1)OCCO2` stands inactive: -11.3%. Take `Cc1cc2nn(-c3ccc(F)cc3)nc2cc1NC(=O)c1ccc(C(C)(C)C)cc1`: the “activity change, negative = cytotoxicity” value is inactive: 19.5%. Take `COc1cc(CN(C(=O)c2ccccc2)c2ccccn2)cc(OC)c1OC`: the “activity change, negative = cytotoxicity” value is inactive: -17.3%. The value for `COc1cc(C(=O)Nc2cc(C)c(O)c(-c3nc4cc(Cl)ccc4o3)c2)cc(OC)c1OC` was inactive: 7.99%; that for `CCN(CC)C(=O)c1sc2c(c1C)c(=O)n(-c1ccccc1)c(=O)n2CC(=O)N(CC)c1cccc(C)c1` was inactive: -20.9%.

Turning to `Cc1ccc(CNC(=O)c2ccc3c(c2)NC(=O)C(CS(=O)(=O)Cc2cccc(C)c2)N3)cc1` (configuration not stated), the “activity change, negative = cytotoxicity” value is inactive: -5.32%. The value for `COc1cc(NC(=O)CCS(=O)(=O)c2ccc(Br)cc2)cc(OC)c1` was inactive: -4.04%; that for `CN(C(=O)CSc1nncn2c1cc1occc12)c1ccccc1` was inactive: 3.5%; that for `CCCCN(C)C(=O)CN1C(=O)c2cccnc2Oc2ccc(Cl)cc21` was inactive: 7.14%. Under `CCCOc1ccc(C(=O)N(Cc2ccc(Cl)cc2)Cc2ccco2)cc1` stands inactive: -5.74%; under `Cc1cc(NC(=O)c2cnn(-c3ccccc3)c2-n2cccc2)ccc1Br`, inactive: -19.2%; under `Cc1ccc(OCCn2c(CNc3ccccc3C)nc3ccccc32)cc1`, inactive: -5.1%. The value for `N#CC1=C(N)N(c2ccc(Cl)cc2)C2=C(C(=O)CCC2)C1c1cc(CN2CCOCC2)cs1` (configuration not stated) was inactive: 0.914%; that for `O=C(NC1CCCCC1)c1ccc2c(c1)N(Cc1ccc(F)cc1)C(=O)c1ccccc1S2(=O)=O` was inactive: -26.3%; that for `Cc1cccc(N(C)C(=O)C2CCC(CNS(=O)(=O)c3cccc4nsnc34)CC2)c1` (configuration not stated) was inactive: 3.16%. Regarding `COc1ccc(-c2csc3ncnc(Nc4ccc(OC)cc4OC)c23)cc1`, the “activity change, negative = cytotoxicity” value is inactive: -21.3%. Under `COc1cccc(-c2nc3c(C#N)c[nH]n3c2NC2CCCCC2)c1` stands inactive: -11.5%; under `CCc1cccc(NC(=O)Cn2c(=O)n(CC3CCC(C(=O)NC)CC3)c(=O)c3sccc32)c1` (configuration not stated), inactive: -6.5%. Under `COc1cccc(CNC(=O)CN(c2ccc(C)cc2)S(=O)(=O)N(C)C)c1OC` stands inactive: 7.49%.

As for `COc1cc(-c2noc(-c3cc4cccc(C)c4oc3=O)n2)cc(OC)c1OC`, the “activity change, negative = cytotoxicity” value was inactive: 12%. For the molecule `CCCSC1=NC2(CCN(C(=O)NC3CCCCC3)CC2)N=C1c1ccc(OC)cc1`, the “activity change, negative = cytotoxicity” value was inactive: -14.1%.

As for `O=c1c2c3c(sc2nnn1CCCCOc1ccc(Cl)cc1)CCCC3`, the “activity change, negative = cytotoxicity” value is inactive: -0.87%. The value for `N#C/C(=C/c1ccc(O)cc1)c1nc(-c2ccc(-c3ccccc3)cc2)cs1` was inactive: 25.9%; that for `CCOc1ccccc1-n1c(N)c(C(=O)OC)c2nc3ccccc3nc21` was inactive: 6.28%; that for `COc1ccc(-c2nsc(NC(=O)c3oc4ccc(Cl)cc4c3C)n2)cc1` was inactive: 16.9%. Under `O=C(Nc1ccc(F)cc1)c1nc(SCc2ccccc2F)ncc1Cl` stands inactive: 4.18%; under `COc1ccc(C(C)NC(=O)CN(c2cc(OC)ccc2OC)S(=O)(=O)c2ccccc2)cc1` (configuration not stated), inactive: 2.56%; under `CC1CCN(CCCNC(=O)CN2C(=O)CSc3ccc(S(=O)(=O)N4CCCCC4)cc32)CC1`, inactive: -13.2%. Under `COc1cccc(-n2ccnc2SCC(=O)Nc2cccc3ccccc23)c1` stands inactive: -10.3%; under `COc1ccc(-n2c(CC3C(=O)Nc4ccc(C)cc43)nc3ccccc3c2=O)cc1` (configuration not stated), inactive: -0.732%.
